Laboratory results published in patent publication US20250136702A1, “HUMAN LIFR ANTIGEN BINDING PROTEIN, PREPARATION METHOD THEREFOR, AND APPLICATION THEREOF” (NONA BIOSCIENCES (SUZHOU) CO., LTD., priority 2020, published 2025).

T1: human LIFR-ECD (Homo sapiens, UniProt P42702)
T1 construct: The extracellular region (1-833 a.a.) of recombinant human LIFR protein; His tag; made in house; host or cells: HEK293 (transient transfection, purified from culture supernatant)
T1 sequence (P42702 45-833): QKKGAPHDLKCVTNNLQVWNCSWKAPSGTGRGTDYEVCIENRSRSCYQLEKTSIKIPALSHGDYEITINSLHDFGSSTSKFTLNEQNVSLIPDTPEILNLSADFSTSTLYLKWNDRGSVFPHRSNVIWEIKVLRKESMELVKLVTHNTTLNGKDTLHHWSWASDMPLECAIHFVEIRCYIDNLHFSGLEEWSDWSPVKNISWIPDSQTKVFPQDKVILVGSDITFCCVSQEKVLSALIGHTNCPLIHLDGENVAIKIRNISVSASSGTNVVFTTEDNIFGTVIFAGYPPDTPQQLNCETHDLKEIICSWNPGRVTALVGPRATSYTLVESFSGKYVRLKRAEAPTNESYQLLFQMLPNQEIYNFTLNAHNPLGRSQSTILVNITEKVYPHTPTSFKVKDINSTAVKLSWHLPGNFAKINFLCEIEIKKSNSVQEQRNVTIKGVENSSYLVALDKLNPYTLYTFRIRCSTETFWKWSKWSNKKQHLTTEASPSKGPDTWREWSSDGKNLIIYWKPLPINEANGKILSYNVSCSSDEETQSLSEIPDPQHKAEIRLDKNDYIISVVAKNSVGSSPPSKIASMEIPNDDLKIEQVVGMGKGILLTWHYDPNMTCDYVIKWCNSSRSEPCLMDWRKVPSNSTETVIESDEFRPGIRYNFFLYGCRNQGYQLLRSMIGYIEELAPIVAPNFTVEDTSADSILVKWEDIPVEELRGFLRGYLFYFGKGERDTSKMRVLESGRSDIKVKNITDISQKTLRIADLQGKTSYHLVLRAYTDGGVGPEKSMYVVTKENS

T2: mouse LIFR-ECD (Mus musculus, UniProt P42703)
T2 construct: mouse LIFR-ECD proteins
T2 sequence (P42703 44-828 limits assumed): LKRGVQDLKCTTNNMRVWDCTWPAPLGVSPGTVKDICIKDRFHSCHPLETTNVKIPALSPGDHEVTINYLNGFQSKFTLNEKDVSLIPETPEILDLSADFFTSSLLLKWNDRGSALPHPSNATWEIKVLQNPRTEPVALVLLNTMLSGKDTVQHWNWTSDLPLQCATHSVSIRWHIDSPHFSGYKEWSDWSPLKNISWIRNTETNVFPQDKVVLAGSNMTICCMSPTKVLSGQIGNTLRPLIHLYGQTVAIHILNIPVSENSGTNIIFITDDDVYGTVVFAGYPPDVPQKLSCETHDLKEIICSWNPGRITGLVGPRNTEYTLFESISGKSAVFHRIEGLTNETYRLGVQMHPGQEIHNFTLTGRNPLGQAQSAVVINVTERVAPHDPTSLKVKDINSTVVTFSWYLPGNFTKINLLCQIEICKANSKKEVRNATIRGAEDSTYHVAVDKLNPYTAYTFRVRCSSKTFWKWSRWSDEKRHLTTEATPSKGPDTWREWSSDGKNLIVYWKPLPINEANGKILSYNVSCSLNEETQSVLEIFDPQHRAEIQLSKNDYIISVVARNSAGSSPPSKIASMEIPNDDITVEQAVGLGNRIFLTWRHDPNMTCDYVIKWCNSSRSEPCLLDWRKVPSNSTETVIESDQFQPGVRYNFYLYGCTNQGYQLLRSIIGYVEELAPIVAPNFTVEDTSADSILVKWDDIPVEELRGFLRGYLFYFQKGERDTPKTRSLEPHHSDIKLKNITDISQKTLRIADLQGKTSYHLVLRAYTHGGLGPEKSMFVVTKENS

T3: human LIFR/gp130 heterodimer expressed on the surface of 293T cells (Homo sapiens, UniProt P42702)
T3 construct: expressed in transfected cells; host or cells: HEK293T, lentiviral transduction (lenti-LIFR/gp130), puromycin selection, monoclonal line
T3 sequence (P42702 45-1097): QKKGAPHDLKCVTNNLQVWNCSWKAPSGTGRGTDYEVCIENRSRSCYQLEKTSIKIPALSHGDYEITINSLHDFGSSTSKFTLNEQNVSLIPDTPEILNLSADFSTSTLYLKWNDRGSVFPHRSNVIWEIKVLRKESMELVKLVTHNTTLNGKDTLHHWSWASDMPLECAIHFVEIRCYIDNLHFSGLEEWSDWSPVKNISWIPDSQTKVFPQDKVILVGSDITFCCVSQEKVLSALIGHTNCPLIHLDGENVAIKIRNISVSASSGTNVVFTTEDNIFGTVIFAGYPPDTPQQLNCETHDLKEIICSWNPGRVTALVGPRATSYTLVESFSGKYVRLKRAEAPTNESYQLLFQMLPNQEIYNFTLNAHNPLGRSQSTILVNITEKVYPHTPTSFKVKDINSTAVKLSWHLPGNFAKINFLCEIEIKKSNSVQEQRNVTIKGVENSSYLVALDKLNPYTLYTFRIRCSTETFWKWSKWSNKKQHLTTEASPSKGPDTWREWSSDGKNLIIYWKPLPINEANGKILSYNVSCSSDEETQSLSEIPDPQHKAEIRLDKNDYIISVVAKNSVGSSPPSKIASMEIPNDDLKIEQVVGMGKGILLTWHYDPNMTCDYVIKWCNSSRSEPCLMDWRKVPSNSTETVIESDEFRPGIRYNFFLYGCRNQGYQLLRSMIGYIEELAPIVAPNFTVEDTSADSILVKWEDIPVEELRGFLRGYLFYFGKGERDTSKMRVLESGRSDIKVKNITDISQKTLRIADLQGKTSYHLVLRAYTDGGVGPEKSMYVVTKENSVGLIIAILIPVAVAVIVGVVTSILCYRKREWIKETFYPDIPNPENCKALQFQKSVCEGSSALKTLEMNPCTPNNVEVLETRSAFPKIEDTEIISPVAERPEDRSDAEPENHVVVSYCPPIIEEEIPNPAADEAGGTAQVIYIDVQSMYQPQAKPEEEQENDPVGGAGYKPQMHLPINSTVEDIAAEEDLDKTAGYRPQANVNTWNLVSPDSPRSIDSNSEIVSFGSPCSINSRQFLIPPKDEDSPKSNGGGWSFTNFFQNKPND


Legend:
human LIFR-ECD = target: T1, human LIFR-ECD; assay: ELISA binding of antibodies to human LIFR-ECD at the protein level
Description: (§1) The binding ability of the 15 antibodies prepared in examples 1-4 of the present invention to the LIFR-ECD protein was detected based on the ELISA assay method. The binding affinity of different antibodies was determined by comparing their dose response binding curves to LIFR-ECD protein. The specific experimental process is as follows: First, human LIFR-ECD, monkey LIFR-ECD and mouse LIFR-ECD proteins are diluted to a concentration of 1 μg/mL, added to a 96-well plate (100 μL per well) and placed at 4° C. overnight. The 96-well plates were washed three times with PBST solution and then placed at 37° C. for 1 h with the addition of 2% BSA in PBS solution. Antibody seris dilution is prepared and (100 nM, 10-fold-dilution), added to a 96-well plate and incubate at 37° C. for 1 h. After washing three times with PBST solution, add anti-human IgG Fc-HRP secondary antibody (for 5000× dilution) and incubate at 37° C. for 30-60 min. After washing three times with PBST solution, add TMB color development solution for 5-15 minutes, and then add termination solution to ternimate the color development.

mouse LIFR-ECD = target: T2, mouse LIFR-ECD; assay: ELISA binding of antibodies to mouse LIFR-ECD at the protein level
Description: as §1

monkey LIFR-ECD = assay: ELISA binding of antibodies to monkey LIFR-ECD at the protein level
Description: as §1

[1] = target: T3, human LIFR/gp130 heterodimer expressed on the surface of 293T cells; assay: Flow cytometry blocking of huLIF binding to HEK293T-huLIFR/gp130 cells; conditions: compared with the negative control hIgG1
Description: The ability of the 15 antibodies prepared in examples 1-4 of the present invention to block the binding of the huLIF protein to the human LIFR/gp130 heterodimer expressed on the surface of 293T cells was tested based on flow cytometry. The blocking ability was determined by comparing the dose response curves of different antibodies blocking the binding of huLIF protein to HEK293T-huLIFR/gp130 cells.
The specific experimental process is: (1) First determine the EC80 concentration of huLIF protein binding to HEK293T-huLIFR/gp130 cells. Label the huLIF protein to obtain the huLIF-biotin protein; (2) make serise diluton of test antibodies and incubate with HEK293T-huLIFR/gp130 cells and huLIF protein (final concentration is the value of EC80) at 4° C. After washing three times with PBS, incubate with APC-labeled Strepavidin secondary antibody for 30 minutes at 4° C. After washing three times with PBS, resuspend the cells with 100 μL FACS buffer; (3) Use flow cytometry to measure the four-channel median fluorescenceDegree value. Use the logarithm of the antibody concentration to base 10 as the abscissa, and plot the four-channel median fluorescence value on the ordinate to compare the IC50 and the peak value of the curve.

Row | Molecule | binding ability to human LIFR-ECD protein (in words) (human LIFR-ECD) | cross-binding to mouse LIFR-ECD protein (in words) (mouse LIFR-ECD) | binding ability to monkey LIFR-ECD protein (in words) (monkey LIFR-ECD) | block huLIF binding to HEK293T-huLIFR/gp130 (in words) [1]
1 | PR301153: fully human anti-LIFR IgG1 antibody; VH SEQ ID NO: 52, VL SEQ ID NO: 65, HC SEQ ID NO: 76, LC SEQ ID NO: 89 (antibody) heavy: QVQLVESGGGVVQPGRSLRLSCAASGFTFSSYGMDWVRQAPGKGLEWVAVIWYDGSNKFYADSVRGRFTISRDNSQNTLYLQMNSLRAEDTAVYYCARELWFGELLSPFDFWGQGTLVTVSS[here human IgG1 constant region without letters] light: [here about 100 residues without letters][here about 120 residues without letters] | have binding ability | – | have binding ability | significantly block
2 | PR301160: fully human anti-LIFR IgG1 antibody; VH SEQ ID NO: 51, VL SEQ ID NO: 64, HC SEQ ID NO: 75, LC SEQ ID NO: 88 (antibody) heavy: QVQLVESGGGVVQPGRSLRLSCAASGFTFSSYGMDWVRQAPGKGLEWVAVIWYDGSNKFYADSVRGRFTISRDNSQNTLYLQMNSLRAEDTAVYYCARELWFGELLSPLDFWGQGTLVTVSS[here human IgG1 constant region without letters] light: [here about 100 residues without letters][here about 120 residues without letters] | have binding ability | – | have binding ability | significantly block

Next, values leading:

Row | binding ability to human LIFR-ECD protein (in words) (human LIFR-ECD) | cross-binding to mouse LIFR-ECD protein (in words) (mouse LIFR-ECD) | binding ability to monkey LIFR-ECD protein (in words) (monkey LIFR-ECD) | block huLIF binding to HEK293T-huLIFR/gp130 (in words) [1] | Molecule
3 | have binding ability | can cross-binding | have binding ability | – | PR301172: fully human anti-LIFR IgG1 antibody; VH SEQ ID NO: 59, VL SEQ ID NO: 69, HC SEQ ID NO: 83, LC SEQ ID NO: 93 (antibody) heavy: EVQLLESGGGLVQPGGSLRLSCATSGFTFSNYAMTWVRQAPGKGLEWVVISGSGFLTYYADAVKGRFTISRVNSKNSLYLQMNSLRAEDTAVYYCTKGGILTGFDYWGQGTLVTVSS[here human IgG1 constant region without letters] light: KIVMTQSPATLSVSPGERATLSCRASQNLNSNLAWYQQTPGQAPRLLIYGASTRAPGIPARFSGSGSGTEFTLTISSLQSEDFVVYFCQQYNNWPRTFGQGTKVEIKRTVAAPSVFIFPPSDEQLKSGTASVVCLLNNFYPREAKVQWKVDNALQSGNSQESVTEQDSKDSTYSLSSTLTLSKADYEKHKVYACEVTHQGLSSPVTKSFNRGEC
4 | have binding ability | – | have binding ability | significantly block | PR301164: fully human anti-LIFR IgG1 antibody; VH SEQ ID NO: 47, VL SEQ ID NO: 61, HC SEQ ID NO: 71, LC SEQ ID NO: 85 (antibody) heavy: QVQLVESGGGVVQPGRSLRLSCAASGFTFSSYGMDWVRQAPGKGLEWVAVIWYDGSNKYYADSVKGRFTISRDNSKNTLYLQMNSLRAEDTAVYYCARELWFGELLSPFDFWGQGTLVTVSS[here human IgG1 constant region without letters] light: KIVLTQSPGTLSLSPGGRATLSCRASQSISSSYLAWYQQKPGQAPRLLIYAASNRATGIPDRFSGSGSGTDFTLTISRLEPEDFAVYYCQQYGSSPFTFGPGIKVDIKRTVAAPSVFIFPPSDEQLKSGTASVVCLLNNFYPREAKVQWKVDNALQSGNSQESVTEQDSKDSTYSLSSTLTLSKADYEKHKVYACEVTHQGLSSPVTKSFNRGEC
